Source: PubChem BioAssay (NCI)
More than one record can exist for a structure, and the calls need not agree.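 Compound tested at a single concentration for 48 hours in 96-well plates; a percent growth value below 10 was scored as active.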 For part of its entries the source gives two or more results. They are shown here; other results are not. There may be further records. The screen tested this drug many times, at the concentration stated with the values; one value stands for one run. Additions like (4×) count equal records among those shown.

System: SNB-75 CNS
Assay: NCI-60 one-dose screen, 48 h (100 = growth as untreated, 0 = no growth, -100 = all killed)

`COc1cccc2c1C(=O)c1c(O)c3c(c(O)c1C2=O)C[C@@](O)(C(=O)CO)C[C@@H]3OC1CC(N)C(O)C(C)O1` (stereo not given in full) was tested. Which growth (0.25 µM, runs of 2018) did it give?
Its growth is “inactive: 18.7 (2×), 12.6, 40.5, 42.1 (3×), 33.1, 33.3, 38.5, 42.8, 49.8, 45.2, 34.2, 36.2, 33.9 (2×), 35.9, 28.2, 33.4, 39, 38.3, 32.9, 36.6, 29.4, 30.8, 31.9, 55.7, 56.3, 23.5, 21.9 (2×), 27.2, 25.8 (2×), 29.3, 29.8, 32.2, 36.9, 28.9, 24.7, 25.9, 17.2, 16.6, 17.8, 21.2, 37.9% and active: 5.6%, 7.57%”.

And the growth (0.25 µM, runs of 2019)?
The growth was “inactive: 10.4 (2×), 12.9, 22.2, 24.7 (2×), 18.9 (2×), 23, 12.6 (2×), 34.7, 28.2, 33.5, 16.2, 13.8, 23.8, 26.8, 20.7, 15.1, 20, 22.4, 26.1, 24.3, 15.9, 11.9, 19.1, 15, 22.3, 48.7, 12.3, 29.5% and active: -5.5, 6.52, 4.84, 3.9, 2.42, 3.92, -1.01, 9.56, 5.87, 5.58, 5.75, 8.89, 6.07, -5.2, -0.465%”.

What about the growth (0.25 µM, runs of 2020) of the same compound?
The growth was “inactive: 12.7, 59.4, 16.5, 17.2, 14.5, 22.3, 25.5, 33, 29.7, 24.1, 38.7, 43.2, 31.6% and active: 2.94, -1.84, 1.08, -8.03, -8.83, -5.17, -8.06, 8.48, 6.81%”.

What about the growth (0.25 µM, runs of 2021) of the same compound?
The growth was “inactive: 27.1, 35.2, 25.6, 26.4, 29.9, 64.8, 65.6, 42.9, 41.5, 27.7, 29.3, 25.9, 23.7, 33.1, 17.9, 15.3, 20.9, 24.1, 20.8, 21.1, 36.2, 36.6, 30.2, 29.4, 47, 40.6, 21.2, 18.8, 33.5, 23.8, 25.2, 24.8, 30.5, 43.9, 37.6, 28.9, 30.7, 19.8, 18.7, 13.5, 24.7, 30.1, 36.1, 62.1, 15.5, 13.1, 24, 42.1% and active: 6.65, 7.2, 8.68, 7.97%”.

And the growth (0.25 µM, runs of 2022)?
Its growth is “active: 5.26, 7.32, -0.998, -22, -2.32% and inactive: 18.5, 21.6, 14.9, 18.1, 24.5, 12.9, 31.1, 51.3, 37.3, 41.4, 20.7, 51.8, 47.1, 28, 44.7, 58, 45.3, 17.8, 13, 30.6, 40.6%”.

What about the growth (25 µM, runs of 1991) of the same compound?
The growth was “active: -74.4, -87.8, -87 (2×), -68.9, -93.8, -66.8, -67.7, -89.9, -69.8, -70, -73.5, -64.3, -52.3, -54.4, -63.9% and inactive: 62.8%”.

And the growth (25 µM, runs of 1992)?
The growth was “active: -68.7, -86.6 (2×), -78.3, -56.8, -61.1, -66.6, -86.9, -88.8, -83.8, -73.6, -87.2 (2×), -74, -67.3 (2×), -58.5, -36.5, -69.5, -85.7, -78.8, -80, -86, -90.1 (2×), -89.3, -92.6, -49.8, -84.7, -88.2, -72.7, -59 (3×), -56.3, -24.8, -22.7, -81.5, -86.4, -75.9, -84, -93, -88.9, -94.3, -90.2, -87.8, -72.5, -66, -50.8, -51.8, -75.7 (2×), -85.1 (3×), -86.7, -91.2, -88.6, -85.3, -84.2, -76.2, -70.1, -63.2, -83 (2×), -86.1, -83.2, -79.9, -86.8 (2×), -82.7, -63.1, -58.1, -79.8, -63.4, -47.9, -53.6, -37.2, -98, -93.3, -92.8, -95.9, -82.9, -29.8, -95.3, -79.3, -70.2, -26, -49.2, -30.2, -82.4, -83.7, -32.9, -81.9, -77.2, -77.3, -85.4, -63.6, -76.9, -85.6, -54, -82.8, -50.4, -50.2, -53.7, -94.7, -64, -53, -56, -95.1%”.

What about the growth (25 µM, runs of 1993) of the same compound?
Its growth is “active: -86.2, -62.2, -63.1, -50, -78.8, -94.9, -88.5, -81.8, -48, -73.5, -97.3, -96.5, -93.8, -59.6, -67.2 (2×), -64.8, -88.4, -86.8, -91.2 (3×), -78.6, -54.2, -89.1, -79.9, -78, -43.9, -78.4, -85.5, -85.6, -74.3, -77.4, -79.6, -70.8, -91.1, -82.4, -100 (2×), -95, -67, -93.6, -36.1, -62.5, -76.9%”.

What about the growth (25 µM, runs of 1994) of the same compound?
Its growth is “active: -61.4, -81.6, -43.6, -76.2, -59.9, -83.1 (2×), -90.3, -93, -57.1, -91.1, -56, -55.3, -86, -79.5, -52.1, -75.1, -53, -97.4, -67.4, -96.7, -86.2, -53.3, -82.5, -50.5, -80.5%”.

And the growth (25 µM, runs of 1995)?
The growth was “active: -54.3, -78.9, -77.5, -10.9, -46.3, -78, -90.6, -61, -60.2, -67.1, -50.4, -60.9, -71.4, -89.4, -81.8, -84.6, -92, -70.7, -90.2, -94.7, -69.8, -56.2, -66.1, 4.21, -52.8, -72.4, -62.4, -65.4, -79.5, -27.5, -37.1, -69.4, -57.2%”.

And the growth (25 µM, runs of 1996)?
The growth was “active: -78.5, -51.7, -21.3, -48.9, -59.6, -24.9, -37.3, -50, -66, -29.2, -43.6, -60.3, -68.3, -49.2, -64.5, -80.7, -79.7, -35, -54.6, -78.2, -78.8, -75.3, -79.2, -41.7, -45.4, -43.4, -34.6, -76.2 (2×), -66.6, -60.2, -48, -37, -56.2, -70.1, -89.4, -58.3, -95.7, -66.2, -75.7, -50.1, -48.5, -77.3 (2×), -75, -86.6, -30.3, -45.1, -26.5, -81.9, -92.9, -68.8, -59.5, -33.3% and inactive: 81.2%, 55%”.

What about the growth (25 µM, runs of 1997) of the same compound?
Its growth is “active: -41.9, -38.2, -76.1, -44.3, -63.2, -51.9, -71.2, -82.2, -83.5, -81.7 (3×), -78.5, -87.2, -66, -64.3, -54.3, -82.9, -79.4, -91.3, -67.5, -78.8 (2×), -70.5, -73.7, -46.3, -80.3, -73.9, -77.7, -81.9, -82.5, -67.8, -68.2, -59.3, -95.3, -79.1, -83.9, -89.7, -78.4%”.

What about the growth (25 µM, runs of 1998) of the same compound?
Its growth is “active: -86.3, -73.9, -80.3, -47.8, -92.2, -72.2, -95.3, -97.4, -71.3, -63, -70.4, -81.5, -36.1, -61.1, -81.7, -90.2, -69, -42.4, -81.8, -72.1%”.

What about the growth (25 µM, runs of 1999) of the same compound?
Its growth is “active: -84, -53.5, -17.7, -70.7, -58.9, -80.3, -69.8, -72.9, -89.2, -85.9, -7.26, -23, -65.4, -100, -76%”.

What about the growth (25 µM, runs of 2000) of the same compound?
Its growth is “active: -42.5, -100, -66.1, -81.2%”.
